Among all 310,000 compounds or so, about 2,200 (0.71%) showed an effect of 50% or more. The effect is printed as a negative number. The list shows a part of the results.
Target: human ether-à-go-go-related gene (hERG) potassium channel (human, UniProt Q12809)
Experiment: primary screen, population patch clamp on CHO cells stably expressing hERG

human ether-à-go-go-related gene (hERG) potassium channel, sequence (Q12809 whole entry, looked up): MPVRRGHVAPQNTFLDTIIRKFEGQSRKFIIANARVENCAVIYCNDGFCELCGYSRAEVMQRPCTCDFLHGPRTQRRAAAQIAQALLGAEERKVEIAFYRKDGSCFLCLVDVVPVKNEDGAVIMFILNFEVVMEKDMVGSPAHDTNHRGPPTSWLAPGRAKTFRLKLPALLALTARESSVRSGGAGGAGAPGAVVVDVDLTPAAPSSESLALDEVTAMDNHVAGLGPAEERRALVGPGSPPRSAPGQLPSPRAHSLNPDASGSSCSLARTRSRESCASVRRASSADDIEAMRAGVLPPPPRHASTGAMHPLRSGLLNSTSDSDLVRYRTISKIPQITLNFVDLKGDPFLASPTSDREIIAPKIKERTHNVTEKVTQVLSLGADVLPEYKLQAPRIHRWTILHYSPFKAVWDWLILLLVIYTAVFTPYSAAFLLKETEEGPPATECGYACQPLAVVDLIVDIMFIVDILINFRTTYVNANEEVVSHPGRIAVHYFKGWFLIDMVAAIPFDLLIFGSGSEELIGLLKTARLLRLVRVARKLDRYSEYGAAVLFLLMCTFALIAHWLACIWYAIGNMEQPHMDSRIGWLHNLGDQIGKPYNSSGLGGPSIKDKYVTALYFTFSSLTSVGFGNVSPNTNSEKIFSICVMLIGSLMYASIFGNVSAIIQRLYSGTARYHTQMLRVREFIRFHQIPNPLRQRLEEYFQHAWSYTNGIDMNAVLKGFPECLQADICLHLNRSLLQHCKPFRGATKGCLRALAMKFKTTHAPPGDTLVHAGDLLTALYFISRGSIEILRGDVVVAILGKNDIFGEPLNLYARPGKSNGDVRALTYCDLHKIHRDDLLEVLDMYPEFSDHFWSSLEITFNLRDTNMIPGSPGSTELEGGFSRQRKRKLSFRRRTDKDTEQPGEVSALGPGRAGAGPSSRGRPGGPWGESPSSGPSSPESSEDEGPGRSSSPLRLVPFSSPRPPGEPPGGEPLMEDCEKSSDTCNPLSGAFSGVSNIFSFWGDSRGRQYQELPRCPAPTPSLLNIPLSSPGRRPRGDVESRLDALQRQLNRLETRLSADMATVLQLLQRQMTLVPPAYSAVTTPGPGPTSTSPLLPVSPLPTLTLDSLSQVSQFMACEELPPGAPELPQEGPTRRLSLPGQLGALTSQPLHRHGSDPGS

Row | SMILES | hERG current change (%, negative = inhibition) at 1uM [%]
1 | COc1ccc(/C=C2\SC(=O)N(CC(=O)Nc3cccc(C)c3)C2=O)cc1O | 14.8
2 | COc1ccc(OCCSc2nc3ccccc3n2CCC(=O)O)cc1 | 11.2
3 | COc1ccccc1N1CCN(C(=O)c2ccc3[nH]c4c(c3c2)CCCC4)CC1 | 15.1
4 | Cc1nn(C)cc1/C=N/NC(=O)c1sc2ccccc2c1Cl | 7.54
5 | COc1ccccc1/C=N/Nc1cc(N(C)C)nc(N(C)C)n1 | -3.63
6 | CC1=NN(C(C#N)c2ccccc2C)C(c2ccccc2)C1 (stereo not shown) | 9.72
7 | COc1ccc(C(=O)NC2CCCc3ccccc32)cc1[N+](=O)[O-] (stereo not shown) | 4.45
8 | Cc1ccccc1C(O)(Cc1ccccc1)C1CN2CCC1CC2.Cl (stereo not shown) | -28.8
9 | CCCCC(CC)COC(=O)c1ccc(N(C)C)cc1 (stereo not shown) | 10.1
10 | CCCCCn1c(C)c2c(OCC)cccc(=O)c2c1C | -12.5
11 | Cc1nn(C)c(Oc2ccccc2)c1CCNS(=O)(=O)c1ccc(F)cc1 | 17.1
12 | CCOc1cc(C(=O)O/N=C(\N)c2ccc([N+](=O)[O-])cc2)cc(OCC)c1OCC | -10.8
13 | CCCC(=O)Nc1nnc(CC(=O)N2CCCC2)s1 | 5.29
14 | CC(C)CNS(=O)(=O)c1ccc(CCC(=O)NC2CCCC2)cc1 | 7.91
15 | CCn1nnnc1SCC(=O)NCc1cccs1 | 11.8
16 | COc1ccc(-n2c(SCC(=O)Nc3nccs3)nnc2-c2ccccc2)cc1 | 13.9
17 | CN(C)/C=C/C(=O)c1cc(N2CCOCC2)ccc1[N+](=O)[O-] | 4.18
18 | N/C(Cc1ccc(Cl)cc1Cl)=N\OC(=O)c1cccs1 | -0.55
19 | Cc1ccc2nc(Cl)nc(-c3ccccc3)c2c1 | 7.36
20 | CC(C)[C@H](NC(=O)[C@H](Cc1ccccc1)n1c(=O)[nH]c2ccccc2c1=O)C(=O)N[C@@H](Cc1ccccc1)C(=O)O | 10.1
21 | O=C(O)c1cccnc1SC1CC(=O)N(c2cccc3ccccc23)C1=O (stereo not shown) | 9.56
22 | CCCCNCC1CCCO1 (stereo not shown) | 12.1
23 | O=C(CCN1CCN(c2ccc(F)cc2)CC1)Nc1ccc(F)cc1 | -16.8

Row | SMILES | hERG current change (%, negative = inhibition) at 1uM [%]
24 | CCN(CC)CCNC(=O)c1ccc(NC(=O)c2cn(-c3ccccc3)nc2-c2cccs2)cc1 | -8.27
25 | COc1ccc(OC)c2[nH]c(=O)c(CCNC(=O)COc3ccccc3)cc12 | 3.48
26 | Cc1nn(C(C)(C)C)c(OC(=O)c2ccc(Br)o2)c1Sc1ccccc1 | 1.26
27 | O=C(Nc1ccccc1N1CCOCC1)c1ccc(N2CCOCC2)c([N+](=O)[O-])c1 | 5.28
28 | O=C(COC(=O)CCNS(=O)(=O)c1cccs1)Nc1ccccc1 | 4.28
29 | Cc1cc(NC(=O)CCCn2nc(C)c([N+](=O)[O-])c2C)no1 | 10.7
30 | O=S(=O)(c1ccc(F)c(F)c1)N1CCC2(CC1)OCCO2 | 5.71
31 | COc1ccccc1N1CCN(C(=O)c2ccc(NC(C)=O)cc2)CC1 | 10.5
32 | Cc1cc(NC(=O)COC(=O)c2c(C)nn(-c3ccccc3)c2C)no1 | 10.4
33 | O=C(NC1CCN(Cc2ccccc2)CC1)C1CCN(S(=O)(=O)c2cccc([N+](=O)[O-])c2)CC1 | 11.3
34 | Cc1c(C)c2ccc(O[C@@H]3O[C@H](CO)[C@H](O)[C@H](O)[C@H]3O)cc2oc1=O | 6.5
35 | O=C(COc1ncnc2ccccc12)N1CCN(C(=O)c2ccco2)CC1 | -2.61
36 | CC(C)(C)C(=O)Cn1ncc(N2CCOCC2)c(Cl)c1=O | -3.01
37 | CCN(CC)c1ccc(C(=O)OCC(=O)NC(C)(C)C)cc1 | 7.8
38 | Cc1cc(Cl)ccc1C(=O)C1CCCN(C(=O)CCN2CCCO2)C1 (stereo not shown) | 6.31
39 | CCc1ccc(/C=C2\SC(=S)N(CCC(=O)N3CCN(C)CC3)C2=O)cc1 | 11.7
40 | COc1ccccc1Nc1nc(NCC2CCCO2)c2ccccc2n1.Cl (stereo not shown) | -28.9
41 | COc1ccc(OCC(=O)N2CCCC(CO)(CCOc3ccccc3)C2)cc1 (stereo not shown) | -9.42
42 | CCOc1ccc(-n2c(N)c(-c3nc4ccccc4[nH]3)sc2=S)cc1 | 9.61
43 | COC(=O)C1=CN(Cc2ccc(F)cc2)C=C(C(=O)OC)C1c1cc(OC)c(OC)c(OC)c1 | 4.3
44 | CCOC(=O)N1CCN(C(=O)C2CC(c3cc(OC)ccc3OC)=NO2)CC1 (stereo not shown) | -4.89
45 | CCOc1ccc(NC(=O)c2cn(-c3ccc(OCC)cc3)c(=O)c3cc(OC)c(OC)cc23)cc1 | 5.61
46 | Cc1cccc(C)c1NC(=S)N(CCN(C)C)C(C)c1cccnc1 (stereo not shown) | 6.31

Row | SMILES | hERG current change (%, negative = inhibition) at 1uM [%]
47 | COc1ccc(C(NC(N)=O)c2ccccc2)cc1 (stereo not shown) | 14.7
48 | O=C(Cc1ccccc1F)NCC(=O)Nc1ccccc1Br | 11.2
49 | O=C(CC(Nc1ccc(Cl)cc1)C(=O)O)c1ccccc1 (stereo not shown) | 9.1
50 | COc1ccc(N=C2SC(CC(=O)Nc3ccccc3)C(=O)N2Cc2ccco2)cc1 (stereo not shown) | 14.7
51 | Cc1ccc(C(C(=O)NC2CCCC2)N(C(=O)c2csnn2)c2ccccc2)o1 (stereo not shown) | 8.97
52 | O=C(C1=C(O)C(=O)N(CCN2CCOCC2)C1c1ccncc1)c1ccco1 (stereo not shown) | 5.52
53 | N#CCC(=O)Nc1ccc(C(=O)OCc2ccccc2Oc2ccccc2)cc1 | 14.9
54 | C[C@H](NS(=O)(=O)c1ccc(Cl)cc1)C(=O)OCC(=O)c1ccc[nH]1 | 1.58
55 | O=C(N/N=C/c1cccs1)c1ccc2ccccc2c1 | 14
56 | NS(=O)(=O)c1ccc(NC(=O)CN2CCc3ccccc32)cc1 | 10.9
57 | CCNCCNc1ccc(Cl)cc1[N+](=O)[O-].Cl | 5.74
58 | Cl.c1ccc(Nc2nc(NCC3CCCO3)c3ccccc3n2)cc1 (stereo not shown) | 3.9
59 | CCC(CC)C(=O)c1c[nH]c(C(=O)NCc2cccs2)c1 | 16.4
60 | Cc1oc(-c2ccccc2Cl)nc1CS(=O)CC(=O)NCc1ccco1 (stereo not shown) | 8.58
61 | CCNc1nc(NC(C)(C)C)nc(N(C#N)CC)n1 | -20.9
62 | CCCc1cc(=O)[nH]c(SCC(=O)c2c(N)n(C)c(=O)n(C)c2=O)n1 | 8.44
63 | CCOc1ccc(N=C2NC(=O)S/C2=C\c2ccc(OC)cc2)cc1 | 5.36
64 | CN=C1c2cc3c(Br)c(OC)ccc3n2CCN1C.Cl | -33.6
65 | COc1ccc(OC)c2c1sc(=NC(=O)C(C)C)n2C | 14
66 | O=C(CSc1nccn1-c1cccc(Cl)c1)Nc1ccc2c(c1)OCCO2 | 1.39
67 | COc1cc(C(=O)NCCSc2ccccc2)cc(OC)c1OC | 13.6
68 | O=C(CNc1ccc(Cl)cc1)c1ccc(Br)cc1 | 3.51
69 | CSc1ccc(S(=O)(=O)NCC(=O)OC2CCOC2=O)cc1[N+](=O)[O-] (stereo not shown) | 11.3

Row | SMILES | hERG current change (%, negative = inhibition) at 1uM [%]
70 | O=C(CCC1CCCCC1)NCCS(=O)(=O)N1CCN(c2ccccc2F)CC1 | 14.1
71 | CC(C)C[C@H](NC(=O)OC(C)(C)C)c1nnc(SCC(=O)Nc2ccc(Br)cc2)o1 | -6.98
72 | COC(=O)c1cc(S(=O)(=O)N(Cc2ccccc2)C(C)(C)C)c[nH]1 | 3.64
73 | CCn1c(SCC(=O)NC2CCCCC2)nc2ccccc2c1=O | 2.57
74 | CCC(=O)Nc1ccc2nc(C3CC3)n(Cc3ccc(C(C)(C)C)cc3)c(=O)c2c1 | 12.8
75 | CCN1C(=NCCc2ccccn2)N[C@@H](c2cccc(F)c2)C(C(=O)OC)=C1C | -30
76 | Cc1ccc(-c2cc(C(F)F)n3ncc(C(=O)N4CCCCC4c4cccnc4)c3n2)cc1 (stereo not shown) | 4.3
77 | Cc1ccc(C)n1NC(=O)c1ccc(Cl)cc1 | 1.64
78 | CC(C)NC(=O)/C=C/C(=O)O | 11
79 | CCN1CCN(CC(=O)Nc2sc3c(c2C#N)CCC3)CC1 | 9.36
80 | Cc1nnsc1C(=O)NNC(=O)c1cccc2ccccc12 | 9.5
81 | CCOc1ccccc1Nc1ccc(C(=O)O)cc1N | 3.45
82 | Nn1c(-c2cccc(Br)c2)n[nH]c1=S | 12.3
83 | CCSc1nnc(NC(=O)/C=C/c2ccc3c(c2)OCO3)s1 | 17.1
84 | Cc1nc(NC(=O)c2ccc(Cl)cc2)nc2cc3c(cc12)OCO3 | 9.92
85 | Cn1c(=O)c2c([nH]c(OCc3ccc(Cl)cc3Cl)[n+]2Cc2ccc(F)cc2)n(C)c1=O | 6.03
86 | CC(Oc1ccc(F)cc1)C(=O)NN (stereo not shown) | 1.52
87 | CCC1CCCCN1CC(=O)c1ccc(OC(F)F)cc1 (stereo not shown) | -80.2
88 | CCCCn1c(=O)c(C(=O)Nc2ccccc2N)c(O)c2ccccc21 | 16
89 | Cn1nc(C(F)(F)F)cc1-c1ccc(S(N)(=O)=O)s1 | 13.1
90 | CCOC(=O)CSc1nc(C)c(C(C)=O)cc1C#N | -6.78
91 | Clc1cccc(CN2CCc3c([nH]c4ccccc34)C2)c1Cl | 6.09

From publication PMC4336329 (PLoS ONE, 2015)
